Laboratory results published in article PMC5515408.
Some of the results follow. At the low end of the ranking the order means little.

What follows are sequences tested on MYC (p64) + MAX (p21), in MYC:MAX (assay: protein-binding microarray (anti-MAX antibody)). Conditions: PBM: 15 mM Tris-HCl pH 7.5, 100 mM KCl, 0.075% NP40, 7.5 mM beta-mercaptoethanol, 375 ng/ul BSA, 8 ng/ul poly(dA-dT):(dA-dT), 550 ng complex, 60 min, room …; high values mean tight binding; double strand, one strand shown; sequences stand for … in CCGGC…TTAATAGCTAAGATTACTATATCGACG.
In the case of TGAGGATAGGTA, the binding signal (log2 normalized fluorescence) is reported as -0.0864. For TGAAGCTTTGTA, the binding signal (log2 normalized fluorescence) was 0.0469. TGATTAGCAGTA gave a binding signal (log2 normalized fluorescence) of -0.255. TGAATTCCAGTA showed a binding signal (log2 normalized fluorescence) of 0.0106. For TGAACTAAAGTA, the binding signal (log2 normalized fluorescence) was -0.027. Work on AGATTTCGGACA yielded a binding signal (log2 normalized fluorescence) of -0.0672. In the case of TGAAGCCACGTA, the binding signal (log2 normalized fluorescence) is reported as 0.19. TGAGTTGGAGTA gave a binding signal (log2 normalized fluorescence) of -0.241. With TGACACCTGGAA the binding signal (log2 normalized fluorescence) was 0.355. TGACAGGTGCTG gave a binding signal (log2 normalized fluorescence) of 0.49. TGACGTCTCGTA was tested, and the binding signal (log2 normalized fluorescence) was 0.0793. For TGACACGGTATA, the binding signal (log2 normalized fluorescence) was 0.377. In the case of TGAATCTAGGTA, the binding signal (log2 normalized fluorescence) is reported as 0.163. In the case of TGAATCCTAGTA, the binding signal (log2 normalized fluorescence) is reported as -0.0848. AGACACGCAGTA was tested, and the binding signal (log2 normalized fluorescence) was 0.352. For CAAATGAGAGCC, the binding signal (log2 normalized fluorescence) was 0.034. Work on TGACAGATAGTA yielded a binding signal (log2 normalized fluorescence) of 0.0298. TGATCGATCGTA was tested, and the binding signal (log2 normalized fluorescence) was -0.0866. TGAAGATGTGTA showed a binding signal (log2 normalized fluorescence) of 0.0913. TGACTGGGGGTA showed a binding signal (log2 normalized fluorescence) of 0.49. TGAAATTACGTA gave a binding signal (log2 normalized fluorescence) of 0.142. TGATCGTCAGTA showed a binding signal (log2 normalized fluorescence) of 0.103. For TGACCAGAGGTA, the binding signal (log2 normalized fluorescence) was 0.0255. In the case of TGAGATTGGGTA, the binding signal (log2 normalized fluorescence) is reported as -0.291. For TTACACGTTGTC, the binding signal (log2 normalized fluorescence) was 0.589. TGACGTCCTGTA was tested, and the binding signal (log2 normalized fluorescence) was 0.133. Sequence TGACACTTGGCA has a binding signal (log2 normalized fluorescence) of 0.277. Sequence TGATGGCAAGTA has a binding signal (log2 normalized fluorescence) of 0.167. Sequence TGAGGATTAGTA has a binding signal (log2 normalized fluorescence) of -0.0726. For TGACTTTGTGTA, the binding signal (log2 normalized fluorescence) was 0.0708. In the case of TGAGTGGATGTA, the binding signal (log2 normalized fluorescence) is reported as 0.221. TGAGTGAGGGTA gave a binding signal (log2 normalized fluorescence) of 0.097. Work on TGACTTTCTGTA yielded a binding signal (log2 normalized fluorescence) of -0.0198. TGAGTACTCGTA showed a binding signal (log2 normalized fluorescence) of 0.116. Sequence TGACGCGTGGCA has a binding signal (log2 normalized fluorescence) of 0.655. TGATCTTCCGTA showed a binding signal (log2 normalized fluorescence) of -0.00711. TGAGGCACGGTA was tested, and the binding signal (log2 normalized fluorescence) was 0.25. TGAAGCACTGTA showed a binding signal (log2 normalized fluorescence) of 0.197. In the case of TGACCAACTGTA, the binding signal (log2 normalized fluorescence) is reported as 0.0767. In the case of TGAGGTCAAGTA, the binding signal (log2 normalized fluorescence) is reported as -0.156. With TGAAAAGCCGTA the binding signal (log2 normalized fluorescence) was -0.118. Sequence TGAGCCGATGTA has a binding signal (log2 normalized fluorescence) of -0.151. GTCTCAATTATA showed a binding signal (log2 normalized fluorescence) of -0.0911. In the case of TGAAAACTCGTA, the binding signal (log2 normalized fluorescence) is reported as 0.171. TGACCTGGGGTA was tested, and the binding signal (log2 normalized fluorescence) was 0.223. For TGACCCGCAGTA, the binding signal (log2 normalized fluorescence) was 0.0933. TGAGCATCGGTA showed a binding signal (log2 normalized fluorescence) of -0.05. TGATGGCGCGTA gave a binding signal (log2 normalized fluorescence) of 0.191. Work on TGACTCCTGGTA yielded a binding signal (log2 normalized fluorescence) of 0.147. For TGAGTGCTTGTA, the binding signal (log2 normalized fluorescence) was 0.125. With TGAAACGGGGTA the binding signal (log2 normalized fluorescence) was 0.292. Work on TGATTAGGCGTA yielded a binding signal (log2 normalized fluorescence) of -0.145. TGATAAGTGGTA gave a binding signal (log2 normalized fluorescence) of -0.0234. TGACACCTTGTA was tested, and the binding signal (log2 normalized fluorescence) was 0.346. In the case of TGATACTCTGTA, the binding signal (log2 normalized fluorescence) is reported as 0.0392. In the case of TGAACTATCGTA, the binding signal (log2 normalized fluorescence) is reported as 0.0955. Sequence TGACGATCGGTA has a binding signal (log2 normalized fluorescence) of -0.0724. Work on TGAATCAACGTA yielded a binding signal (log2 normalized fluorescence) of 0.211. With AGGCACGTGGTA the binding signal (log2 normalized fluorescence) was 0.815. TGAGTATTCGTA gave a binding signal (log2 normalized fluorescence) of -0.242. TGATAATGGGTA gave a binding signal (log2 normalized fluorescence) of 0.0617. TGAAAGGAAGTA was tested, and the binding signal (log2 normalized fluorescence) was -0.0971. With TGAAGAGATGTA the binding signal (log2 normalized fluorescence) was 0.0426. GGACAAGTGGTC was tested, and the binding signal (log2 normalized fluorescence) was 0.441. For TGAGACCGAGTA, the binding signal (log2 normalized fluorescence) was 0.0907. Work on TGATAATCGGTA yielded a binding signal (log2 normalized fluorescence) of -0.119. With TGATCATACGTA the binding signal (log2 normalized fluorescence) was 0.177. TGACAATAGGTA gave a binding signal (log2 normalized fluorescence) of 0.183. In the case of TGAGACAGCGTA, the binding signal (log2 normalized fluorescence) is reported as 0.087. TGACGTTTAGTA showed a binding signal (log2 normalized fluorescence) of 0.000463. Work on TGACGCTGGGTA yielded a binding signal (log2 normalized fluorescence) of -0.0999. With TAACACAAGGTA the binding signal (log2 normalized fluorescence) was 0.534. Sequence TGATACATTGTA has a binding signal (log2 normalized fluorescence) of 0.066. For TGACAGGTTGTA, the binding signal (log2 normalized fluorescence) was 0.252. Work on TGAACTCCGGTA yielded a binding signal (log2 normalized fluorescence) of 0.137. TGACAGCCTGTA showed a binding signal (log2 normalized fluorescence) of 0.209. For TGATTCTTTGTA, the binding signal (log2 normalized fluorescence) was -0.0833. TGAACGGCGGTA was tested, and the binding signal (log2 normalized fluorescence) was 0.00993. CTACACGTGGTA was tested, and the binding signal (log2 normalized fluorescence) was 0.805. TGATCACTCGTA gave a binding signal (log2 normalized fluorescence) of 0.0786. TGATACGAAGTA was tested, and the binding signal (log2 normalized fluorescence) was -0.107. For TGAGATCGTGTA, the binding signal (log2 normalized fluorescence) was 0.266. Sequence TGACAGATGGTA has a binding signal (log2 normalized fluorescence) of 0.349. Sequence TGATCAGGAGTA has a binding signal (log2 normalized fluorescence) of 0.15. In the case of TGATCCTGGGTA, the binding signal (log2 normalized fluorescence) is reported as -0.0658. TGATCATGTGTA gave a binding signal (log2 normalized fluorescence) of 0.498. Sequence TGATAATGCGTA has a binding signal (log2 normalized fluorescence) of 0.153. Sequence TGGTACGTGGTA has a binding signal (log2 normalized fluorescence) of 0.386. Work on TGAAGCATTGTA yielded a binding signal (log2 normalized fluorescence) of 0.47. TGACTTAACGTA gave a binding signal (log2 normalized fluorescence) of 0.12. TGAACATCGGTA was tested, and the binding signal (log2 normalized fluorescence) was 0.234. TGACGGTGTGTA gave a binding signal (log2 normalized fluorescence) of 0.355. TGAGGTCCCGTA was tested, and the binding signal (log2 normalized fluorescence) was 0.00547. Sequence TGAAGCCAAGTA has a binding signal (log2 normalized fluorescence) of -0.132. TGAAGCAGCGTA showed a binding signal (log2 normalized fluorescence) of 0.063. In the case of TGATTGTTTGTA, the binding signal (log2 normalized fluorescence) is reported as -0.101. For TGAGGCTCTGTA, the binding signal (log2 normalized fluorescence) was -0.0561. Sequence TGACGCCTCGTA has a binding signal (log2 normalized fluorescence) of 0.208. TGACTAAGCGTA showed a binding signal (log2 normalized fluorescence) of 0.0216. With TGACTCACGGTA the binding signal (log2 normalized fluorescence) was 0.255. TGAGCCTATGTA showed a binding signal (log2 normalized fluorescence) of -0.0846. TGAAGGAGGGTA showed a binding signal (log2 normalized fluorescence) of -0.12. Work on TGATCTGTGGTA yielded a binding signal (log2 normalized fluorescence) of 0.0273. TGAGAGAATGTA gave a binding signal (log2 normalized fluorescence) of 0.0493. For TGAGAATACGTA, the binding signal (log2 normalized fluorescence) was -0.0101. In the case of TGAGGGTGAGTA, the binding signal (log2 normalized fluorescence) is reported as -0.0316. Sequence TGACAGGGAGTA has a binding signal (log2 normalized fluorescence) of 0.0524. TGAATGAATGTA gave a binding signal (log2 normalized fluorescence) of 0.23. Work on TGAGAGCTCGTA yielded a binding signal (log2 normalized fluorescence) of -0.00418. TGATAACCCGTA showed a binding signal (log2 normalized fluorescence) of 0.17. With TGACCTCGCGTA the binding signal (log2 normalized fluorescence) was 0.458. With TGACCACTAGTA the binding signal (log2 normalized fluorescence) was 0.286. In the case of TGAGGCATTGTA, the binding signal (log2 normalized fluorescence) is reported as 0.256. TGATGTCCTGTA gave a binding signal (log2 normalized fluorescence) of 0.048. With TGAGAATCTGTA the binding signal (log2 normalized fluorescence) was -0.193. In the case of TGCGTCGTGGTA, the binding signal (log2 normalized fluorescence) is reported as 0.418. TGATTCATCGTA gave a binding signal (log2 normalized fluorescence) of -0.148. Sequence TGAGAGGACGTA has a binding signal (log2 normalized fluorescence) of -0.0569. In the case of TGACACGCCGTA, the binding signal (log2 normalized fluorescence) is reported as 0.447. Work on TGAGGACGGGTA yielded a binding signal (log2 normalized fluorescence) of -0.09. Work on TGATCACAGGTA yielded a binding signal (log2 normalized fluorescence) of 0.157. TGAGGGTTTGTA was tested, and the binding signal (log2 normalized fluorescence) was 0.025. In the case of TGAAGGCCCGTA, the binding signal (log2 normalized fluorescence) is reported as 0.0982. In the case of TGATGTGAGGTA, the binding signal (log2 normalized fluorescence) is reported as 0.132. For TGACGTTAAGTA, the binding signal (log2 normalized fluorescence) was -0.00872. Sequence TGAGCCGCAGTA has a binding signal (log2 normalized fluorescence) of -0.111. Sequence TCACACCTGTTA has a binding signal (log2 normalized fluorescence) of 0.547. TGAGTAAATGTA was tested, and the binding signal (log2 normalized fluorescence) was -0.0255. Sequence TGATGTAGCGTA has a binding signal (log2 normalized fluorescence) of -0.112. For TGAAGCTGCGTA, the binding signal (log2 normalized fluorescence) was -0.129. GGACTCGTGATA showed a binding signal (log2 normalized fluorescence) of 0.37. Work on TGAAGAATTGTA yielded a binding signal (log2 normalized fluorescence) of 0.0207. Work on TGAAGCAAAGTA yielded a binding signal (log2 normalized fluorescence) of 0.125. TGATGACACGTA was tested, and the binding signal (log2 normalized fluorescence) was 0.247. For TGACAAAGAGTA, the binding signal (log2 normalized fluorescence) was 0.0488. In the case of TGAAGCGGGGTA, the binding signal (log2 normalized fluorescence) is reported as 0.271. In the case of TGACTTGTCGTA, the binding signal (log2 normalized fluorescence) is reported as -0.0101. In the case of TGACACGAGATA, the binding signal (log2 normalized fluorescence) is reported as 0.491.
